Data on 153 variants can be found in a collection of fitness landscapes (doi:10.1016/j.celrep.2020.107928).

In all, about 81,000 sequences were measured (“one-hybrid fitness for binding NBS DNA”: median about -0.1, highest 2% from about 0.36 on). The list shows a part of the results. Bounds are passed on as bounds.

B1: Caulobacter ParB omega fusion; a variant is named by its letters at X, in order, B8GW30 (parent)
chain: MESVVVGEPGMSEGRRGLGRGLSALLGEVDAAPAQAPGEQLGGSREAPIEILQRNPDQPRRTFREEDLEDLSNSIREKGVLQPILVRPSPDTAGEYQIVAGERAWRAAQRAGLKTVPIMVRELDDLAVLEIGIIENVQRADLNVLEEALSYKVLMEKFERTQENIAQTIGKSXSHVANXMRLLXLPDEVQSYLVSGELTAXHARAIAAAADPVALAKQIIEGGLSVRETEALARKAPNLSAGKSKGGRPPRVKDTDTQALESDLSSVLGLDVSIDHRGSTGTLTITYATLEQLDDLCNRLTRGI

In the experiment the parent is B1. As to the kind of experiment: one-hybrid fitness for binding NBS DNA (the Noc-binding site; scaled: cognate 1, non-cognate 0); higher = stronger binding. The settings on record: with NBS DNA site. Summed up: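 Values were rescaled so that cognate is 1 and non-cognate is 0. Each is a fitness, the log change in a variant's read ratio to wild type from Illumina reads of plasmids before and after selection, with three replicate libraries pooled and variants under 10 reads dropped. Selection of the Caulobacter ParB libraries, four specificity codons randomised, used E. coli USO with a HIS3 reporter, site 19 bp from the promoter, on M9-minus-histidine with 0.1 mM IPTG and 5 mM 3-AT for 48 hours at 37°C.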
Regarding CMRA, the “one-hybrid fitness for binding NBS DNA” value is not above 0.2.

In the case of SMAG, the “one-hybrid fitness for binding NBS DNA” value was not above 0.2.

Regarding SIIS, the “one-hybrid fitness for binding NBS DNA” value was not above 0.2.

On to AVFR, for which the “one-hybrid fitness for binding NBS DNA” value was not above 0.2.

For KNCR, the “one-hybrid fitness for binding NBS DNA” value is not above 0.2.

In the case of YNTC, the “one-hybrid fitness for binding NBS DNA” value was not above 0.2.

Consider KPIL, for which the “one-hybrid fitness for binding NBS DNA” value was not above 0.2.

Take EAET: the “one-hybrid fitness for binding NBS DNA” value was not above 0.2.

In the case of RRDC, the “one-hybrid fitness for binding NBS DNA” value was 0.318.

On to RNFV, for which the “one-hybrid fitness for binding NBS DNA” value was not above 0.2.

On to HNDR, for which the “one-hybrid fitness for binding NBS DNA” value was not above 0.2.

QKLG: the “one-hybrid fitness for binding NBS DNA” value is not above 0.2.

Regarding EAFR, the “one-hybrid fitness for binding NBS DNA” value was not above 0.2.

As to GQFS, the “one-hybrid fitness for binding NBS DNA” value was not above 0.2.

Turning to WKSD, the “one-hybrid fitness for binding NBS DNA” value was not above 0.2.

Regarding HWKS, the “one-hybrid fitness for binding NBS DNA” value is not above 0.2.

For LGSL, the “one-hybrid fitness for binding NBS DNA” value was not above 0.2.

In the case of ETNW, the “one-hybrid fitness for binding NBS DNA” value is not above 0.2.

As for IKRC, the “one-hybrid fitness for binding NBS DNA” value was not above 0.2.

QKGG: the “one-hybrid fitness for binding NBS DNA” value was not above 0.2.

As for PVGK, the “one-hybrid fitness for binding NBS DNA” value is not above 0.2.

With VKTQ, the “one-hybrid fitness for binding NBS DNA” value is not above 0.2.

With PFTL, the “one-hybrid fitness for binding NBS DNA” value was not above 0.2.

Turning to LRSN, the “one-hybrid fitness for binding NBS DNA” value was not above 0.2.

Take IHTA: the “one-hybrid fitness for binding NBS DNA” value was not above 0.2.

Turning to FEMV, the “one-hybrid fitness for binding NBS DNA” value is not above 0.2.

For QHRI, the “one-hybrid fitness for binding NBS DNA” value worked out at 0.295.

For the variant DRET, the “one-hybrid fitness for binding NBS DNA” value was not above 0.2.

RTSA: the “one-hybrid fitness for binding NBS DNA” value amounted to 0.231.

For the variant QALM, the “one-hybrid fitness for binding NBS DNA” value is not above 0.2.

For HETR, the “one-hybrid fitness for binding NBS DNA” value was not above 0.2.

Regarding GTNT, the “one-hybrid fitness for binding NBS DNA” value is not above 0.2.

Regarding RTML, the “one-hybrid fitness for binding NBS DNA” value was not above 0.2.

With NKIR, the “one-hybrid fitness for binding NBS DNA” value was not above 0.2.

NHVY: the “one-hybrid fitness for binding NBS DNA” value is not above 0.2.

Turning to NPRA, the “one-hybrid fitness for binding NBS DNA” value is not above 0.2.

In the case of PMQT, the “one-hybrid fitness for binding NBS DNA” value is not above 0.2.

Turning to VLGN, the “one-hybrid fitness for binding NBS DNA” value was not above 0.2.

Take QERR: the “one-hybrid fitness for binding NBS DNA” value came out at 0.245.

RFNN: the “one-hybrid fitness for binding NBS DNA” value is not above 0.2.

Take VAPR: the “one-hybrid fitness for binding NBS DNA” value is not above 0.2.

For QSQC, the “one-hybrid fitness for binding NBS DNA” value was not above 0.2.

Turning to REMV, the “one-hybrid fitness for binding NBS DNA” value is not above 0.2.

KSSQ: the “one-hybrid fitness for binding NBS DNA” value is not above 0.2.

In the case of GSGT, the “one-hybrid fitness for binding NBS DNA” value is not above 0.2.

Turning to LQVK, the “one-hybrid fitness for binding NBS DNA” value was not above 0.2.

As to YKRM, the “one-hybrid fitness for binding NBS DNA” value was not above 0.2.

As to IEPD, the “one-hybrid fitness for binding NBS DNA” value was not above 0.2.

With RFSV, the “one-hybrid fitness for binding NBS DNA” value is not above 0.2.

As to HAGA, the “one-hybrid fitness for binding NBS DNA” value was not above 0.2.

On to DWTS, for which the “one-hybrid fitness for binding NBS DNA” value was not above 0.2.

As for WYGC, the “one-hybrid fitness for binding NBS DNA” value was not above 0.2.

Consider CPPP, for which the “one-hybrid fitness for binding NBS DNA” value is not above 0.2.

For GSIC, the “one-hybrid fitness for binding NBS DNA” value was not above 0.2.

On to PARK, for which the “one-hybrid fitness for binding NBS DNA” value is not above 0.2.

Regarding WPHS, the “one-hybrid fitness for binding NBS DNA” value is not above 0.2.

With KPDS, the “one-hybrid fitness for binding NBS DNA” value is not above 0.2.

Turning to SIYT, the “one-hybrid fitness for binding NBS DNA” value is not above 0.2.

With IRTG, the “one-hybrid fitness for binding NBS DNA” value was not above 0.2.

Take NLNG: the “one-hybrid fitness for binding NBS DNA” value is not above 0.2.

As to FIRV, the “one-hybrid fitness for binding NBS DNA” value is not above 0.2.

Turning to QVWM, the “one-hybrid fitness for binding NBS DNA” value was not above 0.2.

With IKSG, the “one-hybrid fitness for binding NBS DNA” value was not above 0.2.

On to PCFV, for which the “one-hybrid fitness for binding NBS DNA” value is not above 0.2.

On to YLWC, for which the “one-hybrid fitness for binding NBS DNA” value was not above 0.2.

Turning to AYKR, the “one-hybrid fitness for binding NBS DNA” value was not above 0.2.

For the variant RWFG, the “one-hybrid fitness for binding NBS DNA” value is not above 0.2.

As for FDYG, the “one-hybrid fitness for binding NBS DNA” value was not above 0.2.

On to GLPN, for which the “one-hybrid fitness for binding NBS DNA” value was not above 0.2.

Take MFCL: the “one-hybrid fitness for binding NBS DNA” value is not above 0.2.

Regarding GCMA, the “one-hybrid fitness for binding NBS DNA” value is not above 0.2.

Regarding PFKD, the “one-hybrid fitness for binding NBS DNA” value is not above 0.2.

For NEVT, the “one-hybrid fitness for binding NBS DNA” value is not above 0.2.

With SAII, the “one-hybrid fitness for binding NBS DNA” value is not above 0.2.

Regarding QMYI, the “one-hybrid fitness for binding NBS DNA” value was not above 0.2.

Consider WYEF, for which the “one-hybrid fitness for binding NBS DNA” value is 0.201.

On to EEFL, for which the “one-hybrid fitness for binding NBS DNA” value was not above 0.2.

As for QFRL, the “one-hybrid fitness for binding NBS DNA” value was not above 0.2.

Regarding SVKT, the “one-hybrid fitness for binding NBS DNA” value is not above 0.2.

With IHKS, the “one-hybrid fitness for binding NBS DNA” value is not above 0.2.

KTCE: the “one-hybrid fitness for binding NBS DNA” value is not above 0.2.

Take PTHI: the “one-hybrid fitness for binding NBS DNA” value was not above 0.2.

LSSP: the “one-hybrid fitness for binding NBS DNA” value is not above 0.2.

GATF: the “one-hybrid fitness for binding NBS DNA” value is not above 0.2.

Consider HWII, for which the “one-hybrid fitness for binding NBS DNA” value was not above 0.2.

Consider LMDS, for which the “one-hybrid fitness for binding NBS DNA” value is not above 0.2.

With VQMF, the “one-hybrid fitness for binding NBS DNA” value was not above 0.2.

Consider KKQY, for which the “one-hybrid fitness for binding NBS DNA” value was not above 0.2.

As to YPFW, the “one-hybrid fitness for binding NBS DNA” value was not above 0.2.

For YAIL, the “one-hybrid fitness for binding NBS DNA” value was not above 0.2.

In the case of MMKM, the “one-hybrid fitness for binding NBS DNA” value was not above 0.2.

In the case of GSKL, the “one-hybrid fitness for binding NBS DNA” value is not above 0.2.

For the variant IYIR, the “one-hybrid fitness for binding NBS DNA” value is not above 0.2.

As to CACK, the “one-hybrid fitness for binding NBS DNA” value was not above 0.2.

As for PSYL, the “one-hybrid fitness for binding NBS DNA” value is not above 0.2.

With KIQT, the “one-hybrid fitness for binding NBS DNA” value was not above 0.2.

Turning to VCTP, the “one-hybrid fitness for binding NBS DNA” value is not above 0.2.

For the variant CKNR, the “one-hybrid fitness for binding NBS DNA” value was not above 0.2.

Take TVQR: the “one-hybrid fitness for binding NBS DNA” value was not above 0.2.

Turning to RQWE, the “one-hybrid fitness for binding NBS DNA” value was not above 0.2.

In the case of RLRC, the “one-hybrid fitness for binding NBS DNA” value stood at 0.348.

KGWR: the “one-hybrid fitness for binding NBS DNA” value is not above 0.2.

Regarding PWYT, the “one-hybrid fitness for binding NBS DNA” value is not above 0.2.

Take KAPD: the “one-hybrid fitness for binding NBS DNA” value was not above 0.2.

As to NDGT, the “one-hybrid fitness for binding NBS DNA” value is not above 0.2.

For AVMW, the “one-hybrid fitness for binding NBS DNA” value was not above 0.2.

Turning to TYHT, the “one-hybrid fitness for binding NBS DNA” value was not above 0.2.

RCPN: the “one-hybrid fitness for binding NBS DNA” value is not above 0.2.

As for TYGS, the “one-hybrid fitness for binding NBS DNA” value is not above 0.2.

For TITF, the “one-hybrid fitness for binding NBS DNA” value was not above 0.2.

With HYTK, the “one-hybrid fitness for binding NBS DNA” value is not above 0.2.

In the case of PLIS, the “one-hybrid fitness for binding NBS DNA” value was not above 0.2.

As for RIWA, the “one-hybrid fitness for binding NBS DNA” value was not above 0.2.

Consider EPDY, for which the “one-hybrid fitness for binding NBS DNA” value was not above 0.2.

Take VPLN: the “one-hybrid fitness for binding NBS DNA” value was not above 0.2.

Consider VMEC, for which the “one-hybrid fitness for binding NBS DNA” value is not above 0.2.

As to EYGT, the “one-hybrid fitness for binding NBS DNA” value is not above 0.2.

Regarding SNWF, the “one-hybrid fitness for binding NBS DNA” value was not above 0.2.

For the variant YLSG, the “one-hybrid fitness for binding NBS DNA” value was not above 0.2.

For GRPS, the “one-hybrid fitness for binding NBS DNA” value was not above 0.2.

In the case of WMDN, the “one-hybrid fitness for binding NBS DNA” value is not above 0.2.

For PYQM, the “one-hybrid fitness for binding NBS DNA” value was not above 0.2.

RRKF: the “one-hybrid fitness for binding NBS DNA” value was determined as 0.484.

As to IHSV, the “one-hybrid fitness for binding NBS DNA” value was not above 0.2.

For the variant SCDN, the “one-hybrid fitness for binding NBS DNA” value was not above 0.2.

As for GTKL, the “one-hybrid fitness for binding NBS DNA” value is not above 0.2.

Regarding PQLQ, the “one-hybrid fitness for binding NBS DNA” value was not above 0.2.

VPHW: the “one-hybrid fitness for binding NBS DNA” value is not above 0.2.

With IQQI, the “one-hybrid fitness for binding NBS DNA” value was not above 0.2.

As for LPLP, the “one-hybrid fitness for binding NBS DNA” value was not above 0.2.

Regarding QKTL, the “one-hybrid fitness for binding NBS DNA” value is not above 0.2.

On to GGKA, for which the “one-hybrid fitness for binding NBS DNA” value is not above 0.2.

Take NTDN: the “one-hybrid fitness for binding NBS DNA” value is not above 0.2.

As for PHPC, the “one-hybrid fitness for binding NBS DNA” value is not above 0.2.

As for KMCG, the “one-hybrid fitness for binding NBS DNA” value was not above 0.2.

In the case of GGWD, the “one-hybrid fitness for binding NBS DNA” value is not above 0.2.

AGMD: the “one-hybrid fitness for binding NBS DNA” value is not above 0.2.

As to MEPD, the “one-hybrid fitness for binding NBS DNA” value was not above 0.2.

For FSDF, the “one-hybrid fitness for binding NBS DNA” value is not above 0.2.

For SAPN, the “one-hybrid fitness for binding NBS DNA” value is not above 0.2.

Take YRPC: the “one-hybrid fitness for binding NBS DNA” value is not above 0.2.

Take VVYR: the “one-hybrid fitness for binding NBS DNA” value was not above 0.2.

As to AWQW, the “one-hybrid fitness for binding NBS DNA” value is not above 0.2.

For CTQM, the “one-hybrid fitness for binding NBS DNA” value is not above 0.2.

For PHHQ, the “one-hybrid fitness for binding NBS DNA” value is not above 0.2.

On to TCII, for which the “one-hybrid fitness for binding NBS DNA” value was not above 0.2.

Take RLDM: the “one-hybrid fitness for binding NBS DNA” value was not above 0.2.

In the case of RQSY, the “one-hybrid fitness for binding NBS DNA” value is not above 0.2.

As for TLGA, the “one-hybrid fitness for binding NBS DNA” value was not above 0.2.

On to QPTN, for which the “one-hybrid fitness for binding NBS DNA” value is not above 0.2.

For the variant RNRY, the “one-hybrid fitness for binding NBS DNA” value is not above 0.2.

On to CRVA, for which the “one-hybrid fitness for binding NBS DNA” value is not above 0.2.

Regarding EDKS, the “one-hybrid fitness for binding NBS DNA” value was not above 0.2.
